Experimental data from the supplement of paper PMC10126150.
Sequences with one replicate were seen in a single cluster, so their values are uncertain.

Test system: ATP
Experiment: switch fluorescence ratio, 500 uM ATP over buffer (Cy3 cluster intensity, sum of 5 cycles each) (fold (ratio)); higher = stronger signal-on switching upon ATP binding; sequences stand for … in TCGTCGGCAGCGTCAGATGTGTATAAGAGACAGTTTTTTTTTTTTTTTTTTTTTTTTT…TC
Details: aptamer strand: ATP DNA aptamer (quencher-CACCTGGGGGAGTATTGCGGAGGAAGG + anchor), 100 nM annealed; ATP concentration: 500 uM; one replicate
Outline: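 Clusters with intensities outside 100-1000 RFU were excluded. The remaining Cy3-labelled switching-strand clusters on a modified Illumina MiSeq flow-cell had been annealed to 100 nM quencher-labelled ATP aptamer and imaged in selection buffer, then after 15 min with 500 uM ATP at 22 °C, for five cycles separated by NaOH stripping and re-annealing. The fluorescence ratio, averaged per switch-domain sequence, is each cluster's summed target-cycle Cy3 intensity over its summed buffer-cycle Cy3 intensity.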
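Note: ATP exposure 15 min at 22 °C before imaging.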

| Sequence | switch fluorescence ratio |
| --- | --- |
| CGTAGTTGCG | 0.99 |
| GCAGCTACAT | 1.1 |
| AGTTGTCCGG | 0.983 |
| TAAAACCATT | 1.05 |
| TGGGTCATGT | 0.977 |
| GCCTTTTCCC | 1.06 |
| GACGCCAGAA | 1.22 |
| TCGGCGGCGC | 1.01 |
| GCGTAACAGG | 1.08 |
| AAAATTCTTG | 0.976 |
| ATATTTTCTC | 1.02 |
| ATGCTAGGAT | 0.997 |
| TTATAGGTGA | 1.02 |
| AACAGGGC | 0.989 |
| ACGAAAGCA | 1.02 |
| CTCCCTCTAT | 1.1 |
| ACAGCCTAT | 1.03 |
| AAGTTTGGAG | 0.986 |
| TCGGCGAGCT | 0.967 |
| AACATACAAG | 1.24 |
| ACAGTTTC | 1.01 |
| GATTTTCGTT | 1.01 |

| Sequence | switch fluorescence ratio |
| --- | --- |
| GCGTTCTTGC | 0.959 |
| CCGGAATAGG | 2.22 |
| GCAACAGGAC | 1.29 |
| CCGGGCACTG | 1.17 |
| AAGTCTGTGG | 0.991 |
| TCGCTTTTAT | 1.08 |
| GGGGGGCGC | 0.958 |
| CAACCGATC | 2.36 |
| ATGACGAGGT | 1.03 |
| TGGGGTCCTC | 0.982 |
| TATGGCTGAC | 1.16 |
| CCTTTATACG | 1.28 |
| TAACGTTGTT | 0.991 |
| GCACCAGTCT | 1.03 |
| TTTGGTTTCG | 0.961 |
| ATCCCCTCGA | 0.981 |
| CAGGAGATAG | 1.06 |
| GCCTAACGCC | 1.11 |
| TGCGGGAGGC | 1.02 |
| ATTCGGGATT | 1 |
| TATGGGTGG | 1.02 |
| CCTAACAAG | 1.01 |

| Sequence | switch fluorescence ratio |
| --- | --- |
| CAATCCCGAG | 1.12 |
| ATCATGCTCT | 0.962 |
| AGGGGTTTT | 1.02 |
| TGCTTGGCCG | 1.02 |
| TGTCTTACAA | 1.03 |
| AATTTAACAA | 0.964 |
| GGTTTCCCCG | 1.03 |
| CCCGTTGTGG | 1.04 |
| GCTACTACTC | 1.57 |
| CCGATGACGT | 1.06 |
| CAAGAGACTC | 1.08 |
| TCGATAGTCC | 1.04 |
| AGCCGCAGGA | 1.59 |
| TAAAGCGAGG | 1.04 |
| TCTAGGGGA | 1.1 |
| ATGATAACTA | 0.997 |
| CAACTCGGAT | 1.01 |
| GCCTTTAAGC | 1.07 |
| TGACAAATTA | 1.09 |
| AGGAAATAGC | 0.987 |
| TAATGTTCT | 0.983 |
| CCATTGACTA | 1.06 |

| Sequence | switch fluorescence ratio |
| --- | --- |
| TAGACCGCAC | 2.37 |
| GATACGCGAA | 1 |
| CAGCGAATCA | 0.968 |
| CGTGGGTGCT | 1.03 |
| AGACGGGCTC | 1.02 |
| TTGTGGTATG | 1.04 |
| ATTTGATAA | 0.993 |
| GAAAATGGGG | 0.993 |
| ATGATGTCGC | 1.05 |
| TGCGAGTATG | 0.977 |
| AGAGTTTGTA | 1.01 |
| TAAATTGTAT | 1.02 |
| GTGATCTCCA | 0.968 |
| TGGTCGTGAA | 0.987 |
| CCCTAATACA | 1.1 |
| AGTGGAGCAT | 1.05 |
| TGTGATGATC | 1 |
| GGACCTTCGG | 1.07 |
| CTCTTAGGGC | 0.943 |
